From a collection of fitness landscapes (doi:10.1016/j.celrep.2020.107928)
In all, about 81,000 sequences were measured (“one-hybrid fitness for binding NBS DNA”: median about -0.1, highest 2% from about 0.36 on). Some of the results follow.

B1: Caulobacter ParB omega fusion; a variant is named by its letters at X, in order, B8GW30 (parent)
chain: MESVVVGEPGMSEGRRGLGRGLSALLGEVDAAPAQAPGEQLGGSREAPIEILQRNPDQPRRTFREEDLEDLSNSIREKGVLQPILVRPSPDTAGEYQIVAGERAWRAAQRAGLKTVPIMVRELDDLAVLEIGIIENVQRADLNVLEEALSYKVLMEKFERTQENIAQTIGKSXSHVANXMRLLXLPDEVQSYLVSGELTAXHARAIAAAADPVALAKQIIEGGLSVRETEALARKAPNLSAGKSKGGRPPRVKDTDTQALESDLSSVLGLDVSIDHRGSTGTLTITYATLEQLDDLCNRLTRGI

Variants of: B1
Assay: one-hybrid fitness for binding NBS DNA (the Noc-binding site; scaled: cognate 1, non-cognate 0); higher = stronger binding
Conditions: with NBS DNA site
Summary of the method: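 The reporter was HIS3, with the binding site 19 bp from the promoter, in E. coli USO used for bacterial one-hybrid selection of Caulobacter ParB libraries with four specificity codons randomised. Growth was on M9 lacking histidine, with 0.1 mM IPTG and 5 mM 3-AT, for 48 hours at 37°C. Illumina sequencing covered plasmids before and after selection; three replicate libraries were pooled and variants with under 10 reads dropped. A fitness score is the log change in variant-to-wild-type read ratio, rescaled to the cognate and non-cognate references.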

Q: Which “one-hybrid fitness for binding NBS DNA” value does the source give for IHLR here?
A: ≤ 0.2

Q: How did the “one-hybrid fitness for binding NBS DNA” value turn out when PGLY was run?
A: ≤ 0.2

Q: For QRDL, which “one-hybrid fitness for binding NBS DNA” value is on record?
A: ≤ 0.2

Q: With EHRN as the variant, how does the “one-hybrid fitness for binding NBS DNA” value read?
A: ≤ 0.2

Q: FSSC was tested. Which “one-hybrid fitness for binding NBS DNA” value did it give?
A: ≤ 0.2

Q: Which “one-hybrid fitness for binding NBS DNA” value does the source give for KCGN here?
A: ≤ 0.2

Q: How did the “one-hybrid fitness for binding NBS DNA” value turn out when TPTC was run?
A: ≤ 0.2

Q: For CEVR, which “one-hybrid fitness for binding NBS DNA” value is on record?
A: ≤ 0.2

Q: How did the “one-hybrid fitness for binding NBS DNA” value turn out when DPTR was run?
A: ≤ 0.2

Q: RTKL was tested. Which “one-hybrid fitness for binding NBS DNA” value did it give?
A: ≤ 0.2

Q: Which “one-hybrid fitness for binding NBS DNA” value does the source give for KMAC here?
A: ≤ 0.2

Q: With AKQT as the variant, how does the “one-hybrid fitness for binding NBS DNA” value read?
A: ≤ 0.2

Q: For SAAE, which “one-hybrid fitness for binding NBS DNA” value is on record?
A: ≤ 0.2

Q: For VIPW, which “one-hybrid fitness for binding NBS DNA” value is on record?
A: ≤ 0.2

Q: How did the “one-hybrid fitness for binding NBS DNA” value turn out when AMHV was run?
A: ≤ 0.2

Q: With RPYS as the variant, how does the “one-hybrid fitness for binding NBS DNA” value read?
A: ≤ 0.2

Q: How did the “one-hybrid fitness for binding NBS DNA” value turn out when EKYG was run?
A: ≤ 0.2

Q: How did the “one-hybrid fitness for binding NBS DNA” value turn out when IYES was run?
A: ≤ 0.2

Q: DSYR was tested. Which “one-hybrid fitness for binding NBS DNA” value did it give?
A: ≤ 0.2

Q: Which “one-hybrid fitness for binding NBS DNA” value does the source give for PIMM here?
A: ≤ 0.2

Q: How did the “one-hybrid fitness for binding NBS DNA” value turn out when VSIG was run?
A: ≤ 0.2

Q: KSAW was tested. Which “one-hybrid fitness for binding NBS DNA” value did it give?
A: ≤ 0.2

Q: Which “one-hybrid fitness for binding NBS DNA” value does the source give for WRRC here?
A: ≤ 0.2

Q: WRYG was tested. Which “one-hybrid fitness for binding NBS DNA” value did it give?
A: ≤ 0.2

Q: For SKSK, which “one-hybrid fitness for binding NBS DNA” value is on record?
A: ≤ 0.2

Q: How did the “one-hybrid fitness for binding NBS DNA” value turn out when VKGM was run?
A: ≤ 0.2

Q: For MCTT, which “one-hybrid fitness for binding NBS DNA” value is on record?
A: ≤ 0.2

Q: For GTLT, which “one-hybrid fitness for binding NBS DNA” value is on record?
A: ≤ 0.2

Q: Which “one-hybrid fitness for binding NBS DNA” value does the source give for NTTY here?
A: ≤ 0.2

Q: With DHHC as the variant, how does the “one-hybrid fitness for binding NBS DNA” value read?
A: ≤ 0.2

Q: Which “one-hybrid fitness for binding NBS DNA” value does the source give for VHHS here?
A: ≤ 0.2

Q: With YVGG as the variant, how does the “one-hybrid fitness for binding NBS DNA” value read?
A: ≤ 0.2

Q: THSP was tested. Which “one-hybrid fitness for binding NBS DNA” value did it give?
A: ≤ 0.2

Q: How did the “one-hybrid fitness for binding NBS DNA” value turn out when FRHS was run?
A: ≤ 0.2

Q: QLKL was tested. Which “one-hybrid fitness for binding NBS DNA” value did it give?
A: ≤ 0.2

Q: How did the “one-hybrid fitness for binding NBS DNA” value turn out when IDGG was run?
A: ≤ 0.2

Q: Which “one-hybrid fitness for binding NBS DNA” value does the source give for ELMC here?
A: ≤ 0.2

Q: How did the “one-hybrid fitness for binding NBS DNA” value turn out when VTGF was run?
A: ≤ 0.2

Q: Which “one-hybrid fitness for binding NBS DNA” value does the source give for WLVC here?
A: ≤ 0.2

Q: With RIST as the variant, how does the “one-hybrid fitness for binding NBS DNA” value read?
A: 0.398

Q: With SLCS as the variant, how does the “one-hybrid fitness for binding NBS DNA” value read?
A: ≤ 0.2

Q: How did the “one-hybrid fitness for binding NBS DNA” value turn out when VGYK was run?
A: ≤ 0.2

Q: SHSN was tested. Which “one-hybrid fitness for binding NBS DNA” value did it give?
A: ≤ 0.2

Q: With AEML as the variant, how does the “one-hybrid fitness for binding NBS DNA” value read?
A: ≤ 0.2

Q: With LRES as the variant, how does the “one-hybrid fitness for binding NBS DNA” value read?
A: ≤ 0.2

Q: With WYIT as the variant, how does the “one-hybrid fitness for binding NBS DNA” value read?
A: ≤ 0.2

Q: FGKV was tested. Which “one-hybrid fitness for binding NBS DNA” value did it give?
A: ≤ 0.2

Q: Which “one-hybrid fitness for binding NBS DNA” value does the source give for YIWR here?
A: ≤ 0.2

Q: Which “one-hybrid fitness for binding NBS DNA” value does the source give for RMES here?
A: ≤ 0.2

Q: How did the “one-hybrid fitness for binding NBS DNA” value turn out when QVIT was run?
A: ≤ 0.2

Q: With CRAT as the variant, how does the “one-hybrid fitness for binding NBS DNA” value read?
A: ≤ 0.2

Q: With EIRF as the variant, how does the “one-hybrid fitness for binding NBS DNA” value read?
A: ≤ 0.2

Q: Which “one-hybrid fitness for binding NBS DNA” value does the source give for IMVG here?
A: ≤ 0.2

Q: For MSNA, which “one-hybrid fitness for binding NBS DNA” value is on record?
A: ≤ 0.2

Q: With QPVD as the variant, how does the “one-hybrid fitness for binding NBS DNA” value read?
A: ≤ 0.2

Q: Which “one-hybrid fitness for binding NBS DNA” value does the source give for VGLI here?
A: ≤ 0.2

Q: For LRWY, which “one-hybrid fitness for binding NBS DNA” value is on record?
A: ≤ 0.2

Q: LSSD was tested. Which “one-hybrid fitness for binding NBS DNA” value did it give?
A: ≤ 0.2

Q: TMCG was tested. Which “one-hybrid fitness for binding NBS DNA” value did it give?
A: ≤ 0.2

Q: For FRLG, which “one-hybrid fitness for binding NBS DNA” value is on record?
A: ≤ 0.2

Q: IDQR was tested. Which “one-hybrid fitness for binding NBS DNA” value did it give?
A: ≤ 0.2

Q: For LLVL, which “one-hybrid fitness for binding NBS DNA” value is on record?
A: ≤ 0.2

Q: For VMES, which “one-hybrid fitness for binding NBS DNA” value is on record?
A: ≤ 0.2

Q: How did the “one-hybrid fitness for binding NBS DNA” value turn out when VPEG was run?
A: ≤ 0.2

Q: GSLF was tested. Which “one-hybrid fitness for binding NBS DNA” value did it give?
A: ≤ 0.2

Q: Which “one-hybrid fitness for binding NBS DNA” value does the source give for PTYQ here?
A: ≤ 0.2

Q: Which “one-hybrid fitness for binding NBS DNA” value does the source give for TSGI here?
A: ≤ 0.2

Q: Which “one-hybrid fitness for binding NBS DNA” value does the source give for IANN here?
A: ≤ 0.2

Q: How did the “one-hybrid fitness for binding NBS DNA” value turn out when VMSC was run?
A: ≤ 0.2

Q: For IHSC, which “one-hybrid fitness for binding NBS DNA” value is on record?
A: ≤ 0.2

Q: DCWS was tested. Which “one-hybrid fitness for binding NBS DNA” value did it give?
A: ≤ 0.2

Q: How did the “one-hybrid fitness for binding NBS DNA” value turn out when PIPD was run?
A: ≤ 0.2

Q: For DIAV, which “one-hybrid fitness for binding NBS DNA” value is on record?
A: ≤ 0.2

Q: Which “one-hybrid fitness for binding NBS DNA” value does the source give for MRHF here?
A: ≤ 0.2

Q: With KDLS as the variant, how does the “one-hybrid fitness for binding NBS DNA” value read?
A: ≤ 0.2

Q: With HPGQ as the variant, how does the “one-hybrid fitness for binding NBS DNA” value read?
A: ≤ 0.2

Q: For KFLG, which “one-hybrid fitness for binding NBS DNA” value is on record?
A: ≤ 0.2

Q: How did the “one-hybrid fitness for binding NBS DNA” value turn out when IMER was run?
A: ≤ 0.2

Q: Which “one-hybrid fitness for binding NBS DNA” value does the source give for GDIY here?
A: ≤ 0.2

Q: How did the “one-hybrid fitness for binding NBS DNA” value turn out when PLAV was run?
A: ≤ 0.2

Q: GQYL was tested. Which “one-hybrid fitness for binding NBS DNA” value did it give?
A: ≤ 0.2

Q: For MAAI, which “one-hybrid fitness for binding NBS DNA” value is on record?
A: ≤ 0.2

Q: Which “one-hybrid fitness for binding NBS DNA” value does the source give for QSFV here?
A: ≤ 0.2

Q: Which “one-hybrid fitness for binding NBS DNA” value does the source give for CCGT here?
A: ≤ 0.2

Q: With TGCD as the variant, how does the “one-hybrid fitness for binding NBS DNA” value read?
A: ≤ 0.2

Q: How did the “one-hybrid fitness for binding NBS DNA” value turn out when EWLR was run?
A: ≤ 0.2

Q: For KKCN, which “one-hybrid fitness for binding NBS DNA” value is on record?
A: ≤ 0.2

Q: How did the “one-hybrid fitness for binding NBS DNA” value turn out when FVWC was run?
A: ≤ 0.2

Q: PNAD was tested. Which “one-hybrid fitness for binding NBS DNA” value did it give?
A: ≤ 0.2

Q: How did the “one-hybrid fitness for binding NBS DNA” value turn out when THAS was run?
A: ≤ 0.2

Q: With TTVI as the variant, how does the “one-hybrid fitness for binding NBS DNA” value read?
A: ≤ 0.2

Q: How did the “one-hybrid fitness for binding NBS DNA” value turn out when CCVE was run?
A: ≤ 0.2

Q: For MICR, which “one-hybrid fitness for binding NBS DNA” value is on record?
A: ≤ 0.2

Q: For HSDM, which “one-hybrid fitness for binding NBS DNA” value is on record?
A: ≤ 0.2

Q: How did the “one-hybrid fitness for binding NBS DNA” value turn out when THHC was run?
A: ≤ 0.2

Q: LDQT was tested. Which “one-hybrid fitness for binding NBS DNA” value did it give?
A: ≤ 0.2

Q: MTHS was tested. Which “one-hybrid fitness for binding NBS DNA” value did it give?
A: ≤ 0.2
